Test results from PubChem BioAssay AID463173 (ICCB-Longwood Screening Facility, Harvard Medical School, 2010).
The whole screen tested about 52,000 compounds, of which about 1,700 (3.3%) were called active. Rule as the data show it: active = survival mostly below about 52% (no sharp cut-off); inactive = mostly above about 56%. The list shows a part of the results.

tested on: Wild type; test: growth inhibition of S. aureus wild type versus tarO mutant, primary screen, teichoic acid synthesis inhibitors, RN4220, OD600 (AID 463173); details: S. aureus RN4220 wild type/DeltatarO growth, OD600, 18 h, stronger effect = lower value, screened at 18.75 µg/mL (by protocol)

Row | SMILES | survival
1 | CCCOc1ccc(C2C3CN(CC)CC=C3C(C#N)=C(N)C2(C#N)C#N)cc1OC (configuration not stated) | inactive: 74%
2 | Cc1ccc(NC(=O)CN(C)S(=O)(=O)c2ccc3nc(C)sc3c2)c(C)c1 | inactive: 93%
3 | CCCSCCCNC(=O)c1ccc(Cn2c(=O)c3cccn3c3cccnc32)cc1 | inactive: 89%
4 | COc1ccc(Cl)cc1NC(=O)CCc1c(C)nc2c(c1C)c(=O)n(C)c(=O)n2C | inactive: 76%
5 | COc1cc(NC(=O)CSc2nc3nc(C)c(Cc4ccc(C)cc4)c(C)n3n2)cc(OC)c1 | inactive: 128%
6 | Cc1nc(-c2ccccc2)sc1CCNC(=O)c1ccco1 | inactive: 117%
7 | O=C(Nc1ccccc1C1CC1)c1cccs1 | inactive: 119%
8 | CCc1ccccc1NC(=O)CSc1ncc2c(n1)-c1ccccc1N(Cc1ccc(C)cc1)S2(=O)=O | inactive: 78%
9 | CCN(C(=O)Cn1ncc2c1-c1cc(C)ccc1OC2)c1cc(Cl)ccc1OC | inactive: 23%
10 | Cc1ccc(S(=O)(=O)c2cn(Cc3ccccc3)c3cc(N4CCCC4)c(F)cc3c2=O)cc1C | inactive: 74%
11 | COc1ccccc1CNS(=O)(=O)c1c(C)nc2sccn2c1=O | inactive: 86%
12 | CCN(Cc1ccccc1)C(=O)CCNS(=O)(=O)c1ccc2c(c1)CC(C)N2C(C)=O (configuration not stated) | inactive: 114%
13 | CCOC(=O)c1ccccc1NS(=O)(=O)c1c(-c2ccc(C)cc2)csc1C(=O)OC | inactive: 134%
14 | COc1cccc(CNC(=O)CCc2c(C)c3cc4c(C)c(C)oc4cc3oc2=O)c1 | inactive: 111%
15 | CC1CCN(C(=O)CCCOc2ccc(Cl)cc2)CC1 | inactive: 109%
16 | COCCNC(=O)Cn1nnc(-c2ccc(OC)cc2)n1 | inactive: 103%
17 | O=C(Nc1ccc(NC(=O)c2cccs2)cc1)c1ccc(Br)cc1 | inactive: 135%
18 | CC(C)(C)C(=O)Nc1ccc2nc(SCC(=O)N3CCCC3)sc2c1 | inactive: 96%
19 | CCOC(=O)C(CC)Sc1nnc(COc2ccc(Cl)c(C)c2)n1CC (configuration not stated) | inactive: 103%

Row | SMILES | survival
20 | O=C(OCc1ccccc1Cl)c1ccc(-c2nnn(Cc3ccccc3)n2)cc1 | inactive: 64%
21 | CC(C)Oc1ccc(CNC(=O)c2ccc(NC(=O)c3nsc4ccccc34)cc2)cc1 | inactive: 64%
22 | COc1ccc(/C=C(/C#N)c2nc(-c3ccc(-c4ccccc4)cc3)cs2)cc1 | inactive: 66%
23 | CCN(CCCNC(=O)c1cc2cc3cc(C)ccc3nc2s1)c1cccc(C)c1 | inactive: 75%
24 | O=C(O)CCN1C(=O)c2ccc(Oc3ccc4c(c3)C(=O)N(CCC(=O)O)C4=O)cc2C1=O | inactive: 110%
25 | Cc1ccc(C)c(NC(=O)C(=O)NCCc2csc(-c3ccc(C(F)(F)F)cc3)n2)c1 | inactive: 69%
26 | CCC(C)NC(=O)Cn1c(=O)n(-c2ccc(C)cc2)c(=O)c2ccccc21 (configuration not stated) | inactive: 83%
27 | O=C1CC(CSc2nnnn2-c2ccccc2)=NN1 | inactive: 128%
28 | CCOC(=O)Cn1c(=O)cc(-c2ccccc2)c2c(C)nn(C)c21 | inactive: 136%
29 | CCc1ccc(-n2nc(CO)c(C(=O)NCc3ccccn3)n2)cc1 | inactive: 94%
30 | Cc1ccccc1CSc1nc2nc(C)c(Cc3ccccc3)c(C)n2n1 | inactive: 66%
31 | COc1ccc(OC)c(CCNC(=O)c2ccc(CS(=O)Cc3cccc(Cl)c3)o2)c1 (configuration not stated) | inactive: 79%
32 | CCc1ccccc1N(CC)C(=O)c1cc2c(s1)-c1ccccc1OC2 | active: 9%
33 | Cc1cc(C)nc(NC(N)=NC(C)c2ccccc2)n1 (configuration not stated) | inactive: 97%
34 | Cc1oc2ncnc(N3CCCCC3)c2c1C(=O)NCC1CCN(Cc2ccc(F)cc2)CC1 | inactive: 90%
35 | Cc1nc(-c2ccccc2)sc1-c1ccc(SCC(=O)Nc2ccc(F)cc2F)nn1 | inactive: 30%
36 | CC(Sc1oc(-c2ccco2)nc1S(=O)(=O)c1ccc(Br)cc1)c1ccccc1 (configuration not stated) | inactive: 69%
37 | COCCNc1nc(NCc2ccccc2OC)c2cnn(C)c2n1 | inactive: 97%
38 | CCC(CC)c1nn2c(=O)cc(COc3ccc(NC(=O)c4ccc(Cl)cc4)cc3)nc2s1 | inactive: 86%

Row | SMILES | survival
39 | COc1ccc(-n2ncc(C(=O)N3CCN(c4ccccn4)CC3)c2C2CCN(C(=O)OC(C)(C)C)CC2)cc1 | inactive: 77%
40 | CCCCNc1nc(Oc2ccc(=O)n(-c3ccccc3)n2)nc(N(C)C)n1 | inactive: 87%
41 | O=C(OCc1ccccn1)c1ccc(COc2ccccc2Cl)o1 | inactive: 110%
42 | CN(C(=O)c1nn(C)c2c1COc1ccccc1-2)c1cccc(C(F)(F)F)c1 | inactive: 84%
43 | CCOc1ccccc1NC(=O)C(NS(=O)(=O)c1cccc2nsnc12)c1ccccc1 (configuration not stated) | inactive: 90%
44 | Cc1nnc(N2CCN(c3ccccc3F)CC2)c2c1nnn2Cc1ccc(F)cc1 | inactive: 88%
45 | COCCNC(=O)c1c(NC(=O)Cc2coc3cc(C)ccc23)sc2c1CCCC2 | inactive: 77%
46 | COc1ccc(N2CCN(CCCNC(=O)c3cnn(-c4ccc(F)cc4)c3-n3cccc3)CC2)cc1 | inactive: 77%
47 | CCOC(=O)c1cn(CC(=O)Nc2cccc(Cl)c2C)nn1 | inactive: 86%
48 | COc1ccc(N2CCN(c3nc(-c4ccccc4F)nc4ccccc34)CC2)cc1 | inactive: 92%
49 | O=C(CN(c1cccc(Br)c1)S(=O)(=O)c1ccccc1)N1CCc2ccccc2C1 | inactive: 83%
50 | CCOC(=O)c1c(C)[nH]c(C)c1S(=O)(=O)N1CCC(C(=O)NCc2ccccc2)CC1 | inactive: 55%
51 | Cc1ccc(C)c(OCCSc2nc3ccccc3n2CC(=O)N2CCOCC2)c1 | inactive: 78%
52 | COc1ccc(-c2ccc(NS(=O)(=O)c3ccc(F)c(C(F)(F)F)c3)cc2)nn1 | inactive: 127%
53 | COC(=O)c1c(NC(=O)CCCOc2ccc(C)cc2)sc2c1C(C(=O)OC)CC2 (configuration not stated) | active: 1%
54 | CCc1cccc(CC)c1NC(=O)c1cc(S(=O)(=O)N2CCc3ccccc32)cn1C | inactive: 83%
55 | Cc1ccc(CN2CCCn3nc(C(=O)NCCN(C)C)cc3C2=O)cc1 | inactive: 80%
56 | COc1cccc(OCc2nc3ccccc3n2CCOc2ccccc2)c1 | inactive: 74%
57 | Cc1nn2c(=O)cc(COC(=O)c3ccccc3NC(=O)c3ccccc3C)nc2s1 | inactive: 126%
